Here are results for 27 compounds from the supplement of paper PMC9446081.

Among all 39,000 compounds or so, about 220 (0.56%) showed activity. The list shows a part of the results.
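Note: static incubation at 37 °C against the wild-type strain, values averaged over two biological replicates.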

The experiment has as its system Escherichia coli K-12 BW25113. Kind of experiment: relative growth (OD600 normalised to plate interquartile mean) (fraction); higher = less growth inhibition, active = 0.2 or less. Conditions: 50 µM; LB; incubation time: overnight (16-24 h).
For the compound `C[C@H](CO)N1C[C@H](C)[C@H](CN(C)C(=O)Oc2ccccc2)OCc2ccccc2-c2c(n(C)c3ccccc23)C1=O`, the relative growth was inactive: 0.99.
Consider `CC(=O)Nc1ccc(CCN)cc1`, for which the relative growth is inactive: 1.
With `O=C(O)/C=C/CO` the figure was inactive: 1.01.
For the compound `NC[C@H]1CCCc2ccc(Cl)cc21`, the relative growth is inactive: 0.899.
As to `CC(C)c1cc2c(c(O)c1O)C1(C(=O)O)CCCC(C)(C)C1CC2` (configuration not stated), the relative growth is inactive: 0.861.
Consider `Cc1ccc(OC(=O)N(C)C[C@@H]2OCc3ccccc3-c3c(n(C)c4ccccc34)C(=O)N([C@H](C)CO)C[C@H]2C)cc1`, for which the relative growth is inactive: 1.01.
Under `c1cnc(N[C@@H]2CO[C@@]3(CCNC3)C2)cn1` stands inactive: 1.01; under `COC(=O)[C@@]1(Cc2ccccc2CN=[N+]=[N-])N=C(c2ccc(OCCCO)cc2)O[C@H]1c1ccccc1N=[N+]=[N-]`, inactive: 1.01; under `CCC(C)C(=O)OC1CC2(C)C(c3ccoc3)OC(=O)CC23OC2(C)OC34C(OC(=O)C(C)C)C3(O)C(OC(=O)C5(C)OC5C)C5(C)CC3(O)C(C)(C5CC(=O)OC)C14O2` (configuration not stated), inactive: 0.982.
Take `C=CCc1cc(OC)c2c(c1OC)OCO2`: the relative growth was inactive: 0.99.
In the case of `C[N+](C)(C)C[C@H]1CCC[C@@H]1O`, the relative growth is inactive: 0.98.
Under `c1cncc(N2CCNCC2)c1` stands inactive: 1.02.
As to `CC(C)c1csc(CCN)n1`, the relative growth was inactive: 0.964.
In the case of `Oc1ccccc1N1CCNCC1`, the relative growth was inactive: 1.04.
Turning to `O=C1C2CCN(CC2)C1(CO)CO`, the relative growth was inactive: 0.938.
For the compound `C1COC2(CCNCC2)OC1`, the relative growth was inactive: 1.03.
Turning to `Cc1cc(N2CCN(C)CC2)ncn1`, the relative growth was inactive: 1.02.
As for `CCC1(C2OC(C3OC(O)(CO)C(C)CC3C)CC2C)CCC(C2(C)CCC3(CC(O)C(C)C(C(C)C(OC)C(C)C(=O)[O-])O3)O2)O1.[Na+]` (configuration not stated), the relative growth is inactive: 0.973.
Consider `COC(=O)C1(O)C[C@H]2CC[C@@H](C1)N2C` (some centres not stated), for which the relative growth is inactive: 0.996.
Regarding `COc1cc2ccc(=O)oc2c2ccoc12`, the relative growth was inactive: 1.05.
Regarding `NCC1(CC(=O)O)CCCCC1`, the relative growth was inactive: 0.872.
Consider `C=CCc1ccc(OC)cc1`, for which the relative growth is inactive: 0.903.
For `COc1cc2c(cc1OC)C13CCN4CC5=CCOC6CC(=O)N2C1C6C5CC43` (configuration not stated), the relative growth is inactive: 1.05.
With `C[C@@H]1CN([C@@H](C)CO)C(=O)CCCn2nncc2CO[C@@H]1CN(C)C(=O)Oc1ccc2ccccc2c1` the figure was inactive: 0.993.
Consider `COc1cccc(C=O)c1OC`, for which the relative growth was inactive: 1.01.
For `COc1ccc(OC(=O)N(C)C[C@H]2OCc3ccccc3-c3c(n(C)c4ccccc34)C(=O)N([C@@H](C)CO)C[C@H]2C)cc1`, the relative growth was inactive: 1.02.
In the case of `O=C(NC[C@H]1CC[C@]2(CNCCOC2)O1)c1ccnnc1`, the relative growth was inactive: 0.971.
